# Measurements from the supplement of paper PMC8728848.
# The list shows a part of the results.
# What was measured:
# Assay in all cases: glycan array binding signal (z-score within array); higher = stronger binding
# Details in all cases: glycan notation: IUPAC condensed, linker removed
# Gal6S(b1-4)Glc = biological target: Gal6S(b1-4)Glc
# In short: (§1)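 Arrays were curated from the Consortium for Functional Glycomics database, 3228 in total, and kept only where the protein sequence was available. Binding is expressed as a within-array Z-score. This score was averaged across arrays of the same protein sequence at different concentrations or buffers and across linkers, and negative values can be read as non-binding.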
# Gal6S(b1-4)Glc6S = biological target: Gal6S(b1-4)Glc6S
# In short: as §1
# Gal6S(b1-4)GlcNAc = biological target: Gal6S(b1-4)GlcNAc
# In short: as §1
# Gal6S(b1-4)GlcNAc6S = biological target: Gal6S(b1-4)GlcNAc6S
# In short: as §1
# GalNAc(a1-3)Gal = biological target: GalNAc(a1-3)Gal
# In short: as §1
# GalNAc(a1-3)GalNAc = biological target: GalNAc(a1-3)GalNAc
# In short: as §1
# [1] = biological target: GalNAc(a1-3)GalNAc(b1-3)Gal(a1-4)Gal(b1-4)Glc
# In short: as §1
# [2] = biological target: GalNAc(a1-3)GalNAc(b1-3)Gal(a1-4)Gal(b1-4)GlcNAc
# In short: as §1
# GalNAc(b1-3)Gal = biological target: GalNAc(b1-3)Gal
# In short: as §1
# [3] = biological target: GalNAc(b1-3)Gal(a1-4)Gal(b1-4)GlcNAc
# In short: as §1
# [4] = biological target: GalNAc(b1-3)Gal(a1-4)Gal(b1-4)GlcNAc(b1-3)Gal(b1-4)Glc
# In short: as §1
# [5] = biological target: GalNAc(b1-3)Gal(a1-6)Gal(b1-4)Glc
# In short: as §1
# GalNAc(b1-3)GalNAc = biological target: GalNAc(b1-3)GalNAc
# In short: as §1
# GalNAc(b1-3)GlcNAc = biological target: GalNAc(b1-3)GlcNAc
# In short: as §1
# GalNAc(b1-4)Gal(b1-4)Glc = biological target: GalNAc(b1-4)Gal(b1-4)Glc
# In short: as §1
# GalNAc(b1-4)GlcNAc = biological target: GalNAc(b1-4)GlcNAc
# In short: as §1
# [6] = biological target: GalNAc(b1-4)GlcNAc(b1-2)Man
# In short: as §1
# [7] = biological target: GalNAc(b1-4)GlcNAc(b1-2)Man(a1-3)[GalNAc(b1-4)GlcNAc(b1-2)Man(a1-6)]Man(b1-4)GlcNAc(b1-4)GlcNAc
# In short: as §1
# [8] = biological target: GalNAc(b1-4)GlcNAc(b1-3)GalNAc(b1-4)GlcNAc
# In short: as §1
# GalNAc(b1-4)GlcNAc6S = biological target: GalNAc(b1-4)GlcNAc6S
# In short: as §1
# GalNAc(b1-6)GalNAc = biological target: GalNAc(b1-6)GalNAc
# In short: as §1
# GalNAc3S(b1-4)GlcNAc = biological target: GalNAc3S(b1-4)GlcNAc
# In short: as §1
# GalNAc3S(b1-4)GlcNAc3S = biological target: GalNAc3S(b1-4)GlcNAc3S
# In short: as §1
# [9] = biological target: GalNAc3S(b1-4)[Fuc(a1-3)]GlcNAc
# In short: as §1
# GalNAc4S6S(b1-4)GlcNAc = biological target: GalNAc4S6S(b1-4)GlcNAc
# In short: as §1
# GalNAc6S(b1-4)GlcNAc = biological target: GalNAc6S(b1-4)GlcNAc
# In short: as §1
# Glc(a1-4)Glc = biological target: Glc(a1-4)Glc
# In short: as §1
# [10] = biological target: Glc(a1-4)Glc(a1-4)Glc(a1-4)Glc
# In short: as §1
# Glc(a1-6)Glc(a1-6)Glc = biological target: Glc(a1-6)Glc(a1-6)Glc
# In short: as §1
# [11] = biological target: Glc(a1-6)Glc(a1-6)Glc(a1-6)Glc
# In short: as §1
# Glc(b1-4)Glc = biological target: Glc(b1-4)Glc
# In short: as §1
# Glc(b1-6)Glc = biological target: Glc(b1-6)Glc
# In short: as §1
# GlcA(b1-3)Gal = biological target: GlcA(b1-3)Gal
# In short: as §1
# GlcA(b1-3)GlcNAc = biological target: GlcA(b1-3)GlcNAc
# In short: as §1
# GlcA(b1-6)Gal = biological target: GlcA(b1-6)Gal
# In short: as §1
# [12] = biological target: GlcA3S(b1-3)Gal(b1-4)GlcNAc(b1-2)Man
# In short: as §1
# [13] = biological target: GlcA3S(b1-3)Gal(b1-4)GlcNAc(b1-3)Gal(b1-4)Glc
# In short: as §1
# [14] = biological target: GlcNAc(a1-3)Gal(b1-4)GlcNAc
# In short: as §1
# [15] = biological target: GlcNAc(a1-4)Gal(b1-3)GlcNAc
# In short: as §1
# [16] = biological target: GlcNAc(a1-4)Gal(b1-4)GalNAc
# In short: as §1
# [17] = biological target: GlcNAc(a1-4)Gal(b1-4)GlcNAc
# In short: as §1
# [18] = biological target: GlcNAc(a1-4)Gal(b1-4)GlcNAc(b1-3)Gal(b1-4)Glc
# In short: as §1
# [19] = biological target: GlcNAc(a1-4)Gal(b1-4)GlcNAc(b1-3)Gal(b1-4)GlcNAc
# In short: as §1
# [20] = biological target: GlcNAc(a1-4)Gal(b1-4)GlcNAc(b1-3)Gal(b1-4)GlcNAc(b1-3)Gal(b1-4)GlcNAc
# In short: as §1
# [21] = biological target: GlcNAc(a1-4)Gal(b1-4)GlcNAc(b1-3)Gal(b1-4)[Fuc(a1-3)]GlcNAc(b1-3)Gal(b1-4)[Fuc(a1-3)]GlcNAc
# In short: as §1
binder,measurement,setting,value
MpAFP NterminalRI GFP (Marinomonas primoryensis) (protein) MSDNQFPFATLGNAIGFITKLDGSVTVQSIDGQERVLKLGDPIFFGETVLTGGSGSVTIAFVDGTDVVIGGDSIVEMTDEIYNTGDNEDLVADSSSEIDALQNAILAGDDPTLIQDAPAAGNTLADQQRVDVSIERNDNSAQAGFGVDTQSSLPTYGYDTDNGNGGQATEREYSAPSLSRTLNQSPLLEHHHHHH,glycan array binding signal (z-score),Gal6S(b1-4)Glc,0.469
same,glycan array binding signal (z-score),Gal6S(b1-4)Glc6S,-0.417
same,glycan array binding signal (z-score),Gal6S(b1-4)GlcNAc,-0.561
same,glycan array binding signal (z-score),Gal6S(b1-4)GlcNAc6S,-0.595
same,glycan array binding signal (z-score),GalNAc(a1-3)Gal,-0.512
same,glycan array binding signal (z-score),GalNAc(a1-3)GalNAc,-0.539
same,glycan array binding signal (z-score),[1],-0.512
same,glycan array binding signal (z-score),[2],-0.421
same,glycan array binding signal (z-score),GalNAc(b1-3)Gal,-0.498
same,glycan array binding signal (z-score),[3],1.23
same,glycan array binding signal (z-score),[4],-0.509
same,glycan array binding signal (z-score),[5],-0.492
same,glycan array binding signal (z-score),GalNAc(b1-3)GalNAc,-0.576
same,glycan array binding signal (z-score),GalNAc(b1-3)GlcNAc,-0.452
same,glycan array binding signal (z-score),GalNAc(b1-4)Gal(b1-4)Glc,0.425
same,glycan array binding signal (z-score),GalNAc(b1-4)GlcNAc,-0.159
same,glycan array binding signal (z-score),[6],-0.503
same,glycan array binding signal (z-score),[7],0.093
same,glycan array binding signal (z-score),[8],0.909
same,glycan array binding signal (z-score),GalNAc(b1-4)GlcNAc6S,-0.611
same,glycan array binding signal (z-score),GalNAc(b1-6)GalNAc,-0.472
same,glycan array binding signal (z-score),GalNAc3S(b1-4)GlcNAc,-0.554
same,glycan array binding signal (z-score),GalNAc3S(b1-4)GlcNAc3S,-0.391
same,glycan array binding signal (z-score),[9],-0.39
same,glycan array binding signal (z-score),GalNAc4S6S(b1-4)GlcNAc,-0.507
same,glycan array binding signal (z-score),GalNAc6S(b1-4)GlcNAc,-0.557
same,glycan array binding signal (z-score),Glc(a1-4)Glc,0.959
same,glycan array binding signal (z-score),[10],-0.3
same,glycan array binding signal (z-score),Glc(a1-6)Glc(a1-6)Glc,-0.345
same,glycan array binding signal (z-score),[11],-0.16
same,glycan array binding signal (z-score),Glc(b1-4)Glc,0.784
same,glycan array binding signal (z-score),Glc(b1-6)Glc,-0.091
same,glycan array binding signal (z-score),GlcA(b1-3)Gal,-0.484
same,glycan array binding signal (z-score),GlcA(b1-3)GlcNAc,-0.343
same,glycan array binding signal (z-score),GlcA(b1-6)Gal,-0.407
same,glycan array binding signal (z-score),[12],-0.43
same,glycan array binding signal (z-score),[13],-0.393
same,glycan array binding signal (z-score),[14],0.258
same,glycan array binding signal (z-score),[15],-0.357
same,glycan array binding signal (z-score),[16],-0.43
same,glycan array binding signal (z-score),[17],-0.415
same,glycan array binding signal (z-score),[18],-0.514
same,glycan array binding signal (z-score),[19],-0.444
same,glycan array binding signal (z-score),[20],-0.518
same,glycan array binding signal (z-score),[21],0.331
